Binding signal (RPM ratio (pull-down/input)) data for 63 sequences are collected here from publication PMC12820563.

The other results are listed elsewhere or left out. The list includes weakly bound sequences.

This assay deals with T1, MBP-FoxP3dN (UniProt Q99JB6).
T1 sequence: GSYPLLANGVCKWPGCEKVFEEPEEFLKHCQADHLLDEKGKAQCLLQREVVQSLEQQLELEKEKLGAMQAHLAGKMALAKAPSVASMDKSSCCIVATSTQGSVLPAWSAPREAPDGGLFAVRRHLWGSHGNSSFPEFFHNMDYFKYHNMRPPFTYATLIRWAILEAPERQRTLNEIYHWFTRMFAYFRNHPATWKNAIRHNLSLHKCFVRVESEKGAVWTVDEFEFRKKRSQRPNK
Briefly: PD-seq (MBP pull-down with sequencing). The conditions noted are these: 20 mM Tris-HCl pH 7.5, 100 mM NaCl, 1.5 mM MgCl2, 0.4 uM protein, 0.1 uM dsDNA library, 30 min, room temperature, amylose pull-down; high values mean tight binding; double strand, one strand shown.
Take “GATGATTGTTCTCCCAGCTGATGAATTCCGGACGTCGAGTAAACAAATTTTCCTAATCTTTCTGTTCAAGCGCCATCTAC”: the binding signal (RPM ratio (pull-down/input)) was 0.243.
As to “GATGATTGTTCTCCCAGCTGATGAATTGTTTGACTCGAGTAAACAAATTTTCCTAATCTTTCTGTTCAAGCGCCATCTAC”, the binding signal (RPM ratio (pull-down/input)) turned out to be 1.33.
The figure for “GATGATTGTTCTCCCAGCTGATGAATTAGGAGGCTCGAGTAAACAAATTTTCCTAATCTTTCTGTTCAAGCGCCATCTAC” is 0.442.
The figure for “GATGATTGTTCTCCCAGCTGATGAATTTCTCGGTTCGAGTAAACAAATTTTCCTAATCTTTCTGTTCAAGCGCCATCTAC” is 0.261; for “GATGATTGTTCTCCCAGCTGATGAATTTCTCTGCTCGAGTAAACAAATTTTCCTAATCTTTCTGTTCAAGCGCCATCTAC” it is 0.231; for “GATGATTGTTCTCCCAGCTGATGAATTCATGAGATCGAGTAAACAAATTTTCCTAATCTTTCTGTTCAAGCGCCATCTAC” it is 0.253.
Next, “GATGATTGTTCTCCCAGCTGATGAATTTAAAAACTCGAGTAAACAAATTTTCCTAATCTTTCTGTTCAAGCGCCATCTAC”: 0.194; “GATGATTGTTCTCCCAGCTGATGAATTACAAAGATCGAGTAAACAAATTTTCCTAATCTTTCTGTTCAAGCGCCATCTAC”: 0.335.
In the case of “GATGATTGTTCTCCCAGCTGATGAATTTCTTCAGTCGAGTAAACAAATTTTCCTAATCTTTCTGTTCAAGCGCCATCTAC”, the binding signal (RPM ratio (pull-down/input)) worked out at 0.178.
The figure for “GATGATTGTTCTCCCAGCTGATGAATTAGTAACCTCGAGTAAACAAATTTTCCTAATCTTTCTGTTCAAGCGCCATCTAC” is 0.688; for “GATGATTGTTCTCCCAGCTGATGAATTAGTGGGGTCGAGTAAACAAATTTTCCTAATCTTTCTGTTCAAGCGCCATCTAC” it is 1.38; for “GATGATTGTTCTCCCAGCTGATGAATTTGATCGCTCGAGTAAACAAATTTTCCTAATCTTTCTGTTCAAGCGCCATCTAC” it is 0.351.
Turning to “GATGATTGTTCTCCCAGCTGATGAATTACTGCGTTCGAGTAAACAAATTTTCCTAATCTTTCTGTTCAAGCGCCATCTAC”, the binding signal (RPM ratio (pull-down/input)) was 1.4.
The figure for “GATGATTGTTCTCCCAGCTGATGAATTTGGATTTTCGAGTAAACAAATTTTCCTAATCTTTCTGTTCAAGCGCCATCTAC” is 0.662; for “GATGATTGTTCTCCCAGCTGATGAATTTAATTCCTCGAGTAAACAAATTTTCCTAATCTTTCTGTTCAAGCGCCATCTAC” it is 0.881; for “GATGATTGTTCTCCCAGCTGATGAATTGCCTAATTCGAGTAAACAAATTTTCCTAATCTTTCTGTTCAAGCGCCATCTAC” it is 0.591.
The figure for “GATGATTGTTCTCCCAGCTGATGAATTGTTTACGTCGAGTAAACAAATTTTCCTAATCTTTCTGTTCAAGCGCCATCTAC” is 7.65; for “GATGATTGTTCTCCCAGCTGATGAATTGAATAGATCGAGTAAACAAATTTTCCTAATCTTTCTGTTCAAGCGCCATCTAC” it is 0.257.
On to “GATGATTGTTCTCCCAGCTGATGAATTAATCCTATCGAGTAAACAAATTTTCCTAATCTTTCTGTTCAAGCGCCATCTAC”, for which the binding signal (RPM ratio (pull-down/input)) stood at 0.347.
For the sequence “GATGATTGTTCTCCCAGCTGATGAATTACGGGGGTCGAGTAAACAAATTTTCCTAATCTTTCTGTTCAAGCGCCATCTAC”, the binding signal (RPM ratio (pull-down/input)) worked out at 0.593.
The figure for “GATGATTGTTCTCCCAGCTGATGAATTCACTTCCTCGAGTAAACAAATTTTCCTAATCTTTCTGTTCAAGCGCCATCTAC” is 0.294.
Next, “GATGATTGTTCTCCCAGCTGATGAATTTAGGATCTCGAGTAAACAAATTTTCCTAATCTTTCTGTTCAAGCGCCATCTAC”: 0.447; “GATGATTGTTCTCCCAGCTGATGAATTTCTATACTCGAGTAAACAAATTTTCCTAATCTTTCTGTTCAAGCGCCATCTAC”: 0.435.
As for “GATGATTGTTCTCCCAGCTGATGAATTGTCGGCCTCGAGTAAACAAATTTTCCTAATCTTTCTGTTCAAGCGCCATCTAC”, the binding signal (RPM ratio (pull-down/input)) was found to be 0.457.
Take “GATGATTGTTCTCCCAGCTGATGAATTCAGAATATCGAGTAAACAAATTTTCCTAATCTTTCTGTTCAAGCGCCATCTAC”: the binding signal (RPM ratio (pull-down/input)) worked out at 0.391.
For “GATGATTGTTCTCCCAGCTGATGAATTGTAAGCCTCGAGTAAACAAATTTTCCTAATCTTTCTGTTCAAGCGCCATCTAC”, the binding signal (RPM ratio (pull-down/input)) turned out to be 0.709.
The figure for “GATGATTGTTCTCCCAGCTGATGAATTACTATCTTCGAGTAAACAAATTTTCCTAATCTTTCTGTTCAAGCGCCATCTAC” is 0.46; for “GATGATTGTTCTCCCAGCTGATGAATTTTTGTTCTCGAGTAAACAAATTTTCCTAATCTTTCTGTTCAAGCGCCATCTAC” it is 0.494; for “GATGATTGTTCTCCCAGCTGATGAATTCTGCCATTCGAGTAAACAAATTTTCCTAATCTTTCTGTTCAAGCGCCATCTAC” it is 4.97.
The figure for “GATGATTGTTCTCCCAGCTGATGAATTTCTGTTTTCGAGTAAACAAATTTTCCTAATCTTTCTGTTCAAGCGCCATCTAC” is 1.13; for “GATGATTGTTCTCCCAGCTGATGAATTCTGGTCGTCGAGTAAACAAATTTTCCTAATCTTTCTGTTCAAGCGCCATCTAC” it is 0.464.
Next, “GATGATTGTTCTCCCAGCTGATGAATTCTGCGTATCGAGTAAACAAATTTTCCTAATCTTTCTGTTCAAGCGCCATCTAC”: 2.61; “GATGATTGTTCTCCCAGCTGATGAATTGAAGACCTCGAGTAAACAAATTTTCCTAATCTTTCTGTTCAAGCGCCATCTAC”: 0.196.
Turning to “GATGATTGTTCTCCCAGCTGATGAATTCCGGGCGTCGAGTAAACAAATTTTCCTAATCTTTCTGTTCAAGCGCCATCTAC”, the binding signal (RPM ratio (pull-down/input)) amounted to 0.464.
Next, “GATGATTGTTCTCCCAGCTGATGAATTGGAAAAATCGAGTAAACAAATTTTCCTAATCTTTCTGTTCAAGCGCCATCTAC”: 0.143; “GATGATTGTTCTCCCAGCTGATGAATTTCAATTATCGAGTAAACAAATTTTCCTAATCTTTCTGTTCAAGCGCCATCTAC”: 1.24.
As to “GATGATTGTTCTCCCAGCTGATGAATTGCCGTTCTCGAGTAAACAAATTTTCCTAATCTTTCTGTTCAAGCGCCATCTAC”, the binding signal (RPM ratio (pull-down/input)) is 0.886.
Take “GATGATTGTTCTCCCAGCTGATGAATTATTTTTCTCGAGTAAACAAATTTTCCTAATCTTTCTGTTCAAGCGCCATCTAC”: the binding signal (RPM ratio (pull-down/input)) came to 0.938.
Next, “GATGATTGTTCTCCCAGCTGATGAATTAACGTCATCGAGTAAACAAATTTTCCTAATCTTTCTGTTCAAGCGCCATCTAC”: 0.642.
The figure for “GATGATTGTTCTCCCAGCTGATGAATTACACTTATCGAGTAAACAAATTTTCCTAATCTTTCTGTTCAAGCGCCATCTAC” is 1.11; for “GATGATTGTTCTCCCAGCTGATGAATTAAGCGTTTCGAGTAAACAAATTTTCCTAATCTTTCTGTTCAAGCGCCATCTAC” it is 3.35; for “GATGATTGTTCTCCCAGCTGATGAATTATACAACTCGAGTAAACAAATTTTCCTAATCTTTCTGTTCAAGCGCCATCTAC” it is 0.885.
The figure for “GATGATTGTTCTCCCAGCTGATGAATTTGTATGATCGAGTAAACAAATTTTCCTAATCTTTCTGTTCAAGCGCCATCTAC” is 3.84.
As for “GATGATTGTTCTCCCAGCTGATGAATTATATGTGTCGAGTAAACAAATTTTCCTAATCTTTCTGTTCAAGCGCCATCTAC”, the binding signal (RPM ratio (pull-down/input)) is 2.18.
Next, “GATGATTGTTCTCCCAGCTGATGAATTACGCGGCTCGAGTAAACAAATTTTCCTAATCTTTCTGTTCAAGCGCCATCTAC”: 0.65; “GATGATTGTTCTCCCAGCTGATGAATTCCCATGGTCGAGTAAACAAATTTTCCTAATCTTTCTGTTCAAGCGCCATCTAC”: 0.262.
As to “GATGATTGTTCTCCCAGCTGATGAATTGGCTTAATCGAGTAAACAAATTTTCCTAATCTTTCTGTTCAAGCGCCATCTAC”, the binding signal (RPM ratio (pull-down/input)) came to 0.334.
The figure for “GATGATTGTTCTCCCAGCTGATGAATTCAGTTAGTCGAGTAAACAAATTTTCCTAATCTTTCTGTTCAAGCGCCATCTAC” is 1.62; for “GATGATTGTTCTCCCAGCTGATGAATTTAGACTGTCGAGTAAACAAATTTTCCTAATCTTTCTGTTCAAGCGCCATCTAC” it is 0.852.
For the sequence “GATGATTGTTCTCCCAGCTGATGAATTTAATTTGTCGAGTAAACAAATTTTCCTAATCTTTCTGTTCAAGCGCCATCTAC”, the binding signal (RPM ratio (pull-down/input)) was 3.39.
Next, “GATGATTGTTCTCCCAGCTGATGAATTCTCAACCTCGAGTAAACAAATTTTCCTAATCTTTCTGTTCAAGCGCCATCTAC”: 0.216; “GATGATTGTTCTCCCAGCTGATGAATTCACCTGTTCGAGTAAACAAATTTTCCTAATCTTTCTGTTCAAGCGCCATCTAC”: 0.3.
Next, “GATGATTGTTCTCCCAGCTGATGAATTATCCTCTTCGAGTAAACAAATTTTCCTAATCTTTCTGTTCAAGCGCCATCTAC”: 0.291; “GATGATTGTTCTCCCAGCTGATGAATTCTCGGAATCGAGTAAACAAATTTTCCTAATCTTTCTGTTCAAGCGCCATCTAC”: 0.194.
Consider “GATGATTGTTCTCCCAGCTGATGAATTGCAAGAGTCGAGTAAACAAATTTTCCTAATCTTTCTGTTCAAGCGCCATCTAC”, for which the binding signal (RPM ratio (pull-down/input)) was determined as 0.475.
In the case of “GATGATTGTTCTCCCAGCTGATGAATTAGCGACCTCGAGTAAACAAATTTTCCTAATCTTTCTGTTCAAGCGCCATCTAC”, the binding signal (RPM ratio (pull-down/input)) was determined as 0.452.
Next, “GATGATTGTTCTCCCAGCTGATGAATTGACCACGTCGAGTAAACAAATTTTCCTAATCTTTCTGTTCAAGCGCCATCTAC”: 0.286.
The figure for “GATGATTGTTCTCCCAGCTGATGAATTGACTGGGTCGAGTAAACAAATTTTCCTAATCTTTCTGTTCAAGCGCCATCTAC” is 0.258.
Next, “GATGATTGTTCTCCCAGCTGATGAATTTCCAGATTCGAGTAAACAAATTTTCCTAATCTTTCTGTTCAAGCGCCATCTAC”: 0.205; “GATGATTGTTCTCCCAGCTGATGAATTGGGTCGCTCGAGTAAACAAATTTTCCTAATCTTTCTGTTCAAGCGCCATCTAC”: 0.326.
As for “GATGATTGTTCTCCCAGCTGATGAATTCGGTTCGTCGAGTAAACAAATTTTCCTAATCTTTCTGTTCAAGCGCCATCTAC”, the binding signal (RPM ratio (pull-down/input)) came to 0.926.
With “GATGATTGTTCTCCCAGCTGATGAATTTTTTTCTTCGAGTAAACAAATTTTCCTAATCTTTCTGTTCAAGCGCCATCTAC”, the binding signal (RPM ratio (pull-down/input)) was 0.286.
On to “GATGATTGTTCTCCCAGCTGATGAATTGCTTCTCTCGAGTAAACAAATTTTCCTAATCTTTCTGTTCAAGCGCCATCTAC”, for which the binding signal (RPM ratio (pull-down/input)) worked out at 0.525.
